Here are results for one compound from patent publication US20230149393A1, “INHIBITORS OF TRPC6 FOR TREATING RESPIRATORY CONDITIONS” (Boehringer Ingelheim International GmbH, priority 2020, published 2023).

The structures appear in SMILES notation.

The test system of this test is LPS-induced vascular leakage. In words: Reduction of LPS-induced vascular leakage in a mouse model (BALF protein). Particulars: 12 h and 2 h before LPS challenge, BALF 4 h after LPS aerosol, FIG. 1c.

`COc1cc(C(=O)N2CCC(c3ccc(N)nn3)CC2)ncc1Oc1ccc(F)cc1` [Compound 17, [4-(6-Amino-pyridazin-3-yl)-piperidin-1-yl]-[5-(4-fluoro-phenoxy)-4-methoxy-pyridin-2-yl]-methanone]: the “reduction of BALF protein concentration” value by setting is: (3 mg/kg p.o.) 56%; (10 mg/kg p.o.) 62%.
